From PMC12136788 come the findings set out here.

Some of the results follow.

T1: UNK ZnF1-6 (called full-length) (human, UniProt Q9C0B0 30-357)
T1 sequence: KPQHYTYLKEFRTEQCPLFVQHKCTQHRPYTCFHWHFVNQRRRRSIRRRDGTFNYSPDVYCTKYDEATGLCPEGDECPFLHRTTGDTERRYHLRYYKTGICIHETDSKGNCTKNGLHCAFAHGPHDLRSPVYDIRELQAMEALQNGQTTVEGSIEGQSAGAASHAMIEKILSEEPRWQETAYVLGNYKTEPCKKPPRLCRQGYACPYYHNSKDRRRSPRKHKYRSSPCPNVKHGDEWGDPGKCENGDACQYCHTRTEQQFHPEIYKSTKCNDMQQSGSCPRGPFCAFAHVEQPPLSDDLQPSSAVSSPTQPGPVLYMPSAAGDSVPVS

B1: chrX:71101288:71101389:+|CDS|ENSG00000184481|unk|total|mutant (ssRNA)
RNA: GGGAGUUCUACAGUCCGACGAUCGGAGGCCCUGCUCACCUCUGAUACGCCACCACCCCCUGCUGACGUCCUCAUGACCCAGGCCGAUCCCAUUCUGUCCCAGGCUCCGACUCUUCUGUUGCUGGGGGGGCUUCCUUCCUCCAGCAACAGAGGAUUGAGCAUCA
B2: chr3:45082276:45085637:-|three_prime_utr|ENSG00000163814|control|control|control (ssRNA)
RNA: GGGAGUUCUACAGUCCGACGAUCAUUGAAAAUGAUGAAUUCCAAUCUGGAUACAGUCAUGACAGCUCAUGUGCUCCUCAACUUAGGCUGUGCGGUUAGCCAGCCUGUAAUGAGAGGAGAGAGGCCUGAGUCACCUAGCAUAGGCAACAGAGGAUUGAGCAUCA
B3: chr13:95044265:95044438:-|CDS|ENSG00000125257|control|control|control (ssRNA)
RNA: GGGAGUUCUACAGUCCGACGAUCACCAUUGAAGAUCUUCCUGGUAAAAUGGAUACUGAAUUAGCAGAAUCAGGAUCCAAUUUUAGUGUUGGACAAAGACAACUGGUGUGCCUUGCCAGGGCAAUUCUCAGGAAAAAUCAGAUACAACAGAGGAUUGAGCAUCA
B4: chr10:94132299:94132400:+|CDS|ENSG00000138193|unk|total|mutant (ssRNA)
RNA: GGGAGUUCUACAGUCCGACGAUCUGAGUAUCGCGCCACCCUCCAAAGGACUUCAAUAUCGCAGUACAUCACCGGUUCUCUCCCCGAAGCAACCACGUCUUUGGGAGCAAGAAGUGGCCUUCUCAGUACUUUUGGAGGAUCCACCAACAGAGGAUUGAGCAUCA
B5: chr4:75597091:75597192:-|CDS|ENSG00000138769|unk|total|mutant (ssRNA)
RNA: GGGAGUUCUACAGUCCGACGAUCUAUAAACUAUUUAAAAUAAAAGGCUCAAAAAUUGAUGGAGAAAAAGCUGAAAAAGGCAACCGAGCUUCAAAUGCCAGCUGUCUCCAUGACAGCCGGACAAGCCACAACAAAACCGUGCCUCAACAGAGGAUUGAGCAUCA
B6: ENSG00000107863:be:win_5301|CDS|ENSG00000107863|bound_else_gene|NA|bound_elsewhere_windowed (ssRNA)
RNA: GGGAGUUCUACAGUCCGACGAUCUCGGUUAAAACUGAGACCCAGAGCCCCUGCGGAUGACAUGUUUGGAGUAGGGAAUCACAAAGUGAAUGCCGAGACUGCUAAAAGGAAAAGCAUCCGGCGCAGACAUACACUAGGAGGGCACAACAGAGGAUUGAGCAUCA

The test has as its target T1, UNK ZnF1-6 (called full-length). Description: nsRBNS (natural sequence RNA bind-n-seq); RBNS binding buffer (assumed for nsRBNS): 25 mM Tris pH 7.5, 150 mM KCl, 3 mM MgCl2, 0.01% Triton X-100, 500 ug/ml BSA, 20 U/ml SUPERase-In, 4 C; UNK is unkempt and MSI1 is Musashi-1; names of the RNAs are library labels; protein concentration not given here; high values mean tight binding.
Regarding B1, the binding signal was 0.679 enrichment R.
To B2 belongs 0.532 enrichment R; to B3, 0.55 enrichment R; to B4, 0.531 enrichment R.
In the case of B5, the binding signal was 0.872 enrichment R.
To B6 belongs 0.664 enrichment R.
